Out of some 310,000 compounds screened, about 14,000 (4.5%) showed an effect of 50% or more. Effects have a minus sign here. The list shows a part of the results.
target: human ether-à-go-go-related gene (hERG) potassium channel (human, UniProt Q12809); experiment: primary screen, population patch clamp on CHO cells stably expressing hERG
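Also: peak tail current of the secondary pulse compared with the same well before compound.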

human ether-à-go-go-related gene (hERG) potassium channel, sequence (Q12809 whole entry, looked up): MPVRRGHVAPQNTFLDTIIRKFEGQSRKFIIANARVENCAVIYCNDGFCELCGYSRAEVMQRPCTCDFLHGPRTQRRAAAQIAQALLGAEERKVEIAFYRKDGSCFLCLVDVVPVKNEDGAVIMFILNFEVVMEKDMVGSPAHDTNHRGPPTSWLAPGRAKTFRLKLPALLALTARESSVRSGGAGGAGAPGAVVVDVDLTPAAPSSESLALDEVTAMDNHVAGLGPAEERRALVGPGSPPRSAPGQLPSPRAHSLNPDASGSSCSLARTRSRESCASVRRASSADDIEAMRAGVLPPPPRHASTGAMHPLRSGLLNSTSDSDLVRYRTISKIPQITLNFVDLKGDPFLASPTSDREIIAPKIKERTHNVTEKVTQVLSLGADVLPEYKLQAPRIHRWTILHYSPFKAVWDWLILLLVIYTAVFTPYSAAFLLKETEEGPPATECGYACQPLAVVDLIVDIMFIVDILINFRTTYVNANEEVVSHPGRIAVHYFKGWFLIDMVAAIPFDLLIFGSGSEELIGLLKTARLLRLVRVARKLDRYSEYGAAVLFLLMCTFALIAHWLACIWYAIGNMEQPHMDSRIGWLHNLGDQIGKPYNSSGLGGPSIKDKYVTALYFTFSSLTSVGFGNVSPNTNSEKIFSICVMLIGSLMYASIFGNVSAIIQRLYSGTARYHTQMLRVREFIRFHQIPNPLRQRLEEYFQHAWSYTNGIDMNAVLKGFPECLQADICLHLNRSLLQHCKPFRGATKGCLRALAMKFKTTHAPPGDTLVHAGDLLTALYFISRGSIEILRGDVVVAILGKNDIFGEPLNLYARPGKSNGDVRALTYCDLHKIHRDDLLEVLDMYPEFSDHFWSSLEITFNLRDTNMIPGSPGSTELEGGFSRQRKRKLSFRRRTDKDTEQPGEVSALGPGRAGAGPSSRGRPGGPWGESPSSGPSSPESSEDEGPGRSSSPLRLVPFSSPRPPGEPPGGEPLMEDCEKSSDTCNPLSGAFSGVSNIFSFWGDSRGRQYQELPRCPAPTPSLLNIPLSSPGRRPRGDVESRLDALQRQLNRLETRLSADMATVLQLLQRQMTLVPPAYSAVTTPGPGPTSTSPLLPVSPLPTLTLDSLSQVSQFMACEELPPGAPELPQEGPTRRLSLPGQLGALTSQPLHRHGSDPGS

SMILES	hERG current change (%, negative = inhibition) at 10uM [%]
O=C(N/N=C/c1ccccn1)c1ccccc1	2.75
Cn1c(O)c(C=Nc2ccc(F)cc2)c(=O)[nH]c1=O	10.2
CSc1ccc(C2Nc3cccc4cccc(c34)N2)cc1	11.2
CSc1nsc(SCC(=O)Nc2cccc(C(C)=O)c2)n1	11.7
O=C1CN(c2ccccc2)C(=O)N1	16
Cc1ccc(S(=O)(=O)CCc2nc3ccccc3[nH]2)cc1	-17.6
CN(C(=O)c1cc2n(n1)C(C(F)(F)F)CC(c1ccco1)N2)c1ccccc1 (stereo not shown)	0.954
O=C(Cn1nnc(-c2ccccc2)n1)OCc1ccccc1	15.6
COc1ccccc1C(=O)N/C(=N/c1nc(C)cc(C)n1)Nc1ccccc1	-1.09
CC(=O)Nc1ccc(S(=O)(=O)NC2(C(F)(F)F)NC(=O)N(c3ccc(Cl)cc3)C2=O)cc1 (stereo not shown)	17.5
CCC1CCCCN1C(=O)c1sc2ncnc(N(CC)CC)c2c1C (stereo not shown)	-16.7
O=C(COC(=O)c1cccc([N+](=O)[O-])c1)NCc1cccs1	10
O=C(Nn1c(-c2ccncc2)nc2ccccc2c1=O)c1ccccc1Br	5.54
Cc1nc2ncnn2c(C)c1Cc1ccccc1Cl	-3.23
CC(=O)Nc1ccccc1OCC(=O)NC(C)c1ccc(F)cc1 (stereo not shown)	-0.0484
CC(C)COC(=O)C1C2C=CC3(CN(C(C)c4ccc(Br)cc4)C(=O)C13)O2 (stereo not shown)	-21.4
CC1(C)OC2OC(C(=O)N/N=C/c3ccccc3F)C3OC(C)(C)OC3C2O1 (stereo not shown)	20.2
Cn1c(NC(=O)c2ccc(S(=O)(=O)N3CCCCC3)cc2)cc(=O)n(C)c1=O	-2.39
Cc1ccc(/C=N/NC(=O)NN(C)c2ncc(C(F)(F)F)cc2Cl)cc1	-3.09
CCCC1Cc2nc(N3CCCCC3)c(C#N)cc2CO1 (stereo not shown)	-27.6
O=[N+]([O-])C(=C1Nc2ccccc2N1)/C(Cl)=C(/Cl)Br	19.8
COc1ccc(CC(=O)N/N=C(\C)c2cccs2)cc1	12.7
Cc1cc(C)cc(SCc2noc(C(=O)NCCC(C)C)c2C(=O)NCCC(C)C)c1	4.93

SMILES	hERG current change (%, negative = inhibition) at 10uM [%]
COC(=O)C1=CN(Cc2cccs2)C=C(C(=O)OC)C1c1cccc(OC)c1OC	-4.95
COc1ccccc1C1CCN(C(=S)Nc2ccc(Br)cc2)CC1	0.164
N#Cc1nc(COc2ccccc2)oc1N1CCOCC1	-19.6
C[C@@H](C(=O)OCC(=O)Nc1cc(S(=O)(=O)N2CCOCC2)ccc1Cl)N1C(=O)C2CCCCC2C1=O (stereo partly shown)	-28.5
CCN(CC)S(=O)(=O)c1ccc(C(=O)Oc2coc(CSc3nc(C)cc(C)n3)cc2=O)cc1	-14.8
Clc1ccc2c(c1)c1cc(Cl)ccc1n2CN1CCOCC1	-1.99
O=C(NNC(=O)c1ccc(Cl)c(Cl)c1)c1ccncc1	9.8
COc1cccc(NC(=O)Nc2ccc3c(c2)nc(C)n3C)c1	-25.2
CNS(=O)(=O)c1cccc(C(=O)OCC(=O)Nc2ccc(N3CCCCC3)cc2)c1	13.6
CCn1ncc(Br)c1C(=O)Nc1ccccc1C(F)(F)F	3.66
COC(=O)c1cnn(-c2ccccc2)c1/C=N/NC(=S)Nc1ccc(Cl)cc1	17.9
COc1cccc(C2N(c3ccc(Cl)cc3)C(=O)C3CCCN32)c1 (stereo not shown)	-3.84
C=CCNC(=O)c1c(N)n(-c2ccc3c(c2)OCO3)c2nc3ccccc3nc12	28.7
c1ccc2c(N3CCOCC3)nc(-c3ccncc3)nc2c1	-31.3
CCOC(=O)c1c(C)n(Cc2ccccc2)c2ccc(OCC(O)Cn3nc(C)nc3C)cc12 (stereo not shown)	-13.9
C(=N\Nc1nccc(-c2cccnc2)n1)/c1ccccc1	-15.1
CCN(Cc1ccccc1OC)CC1CCCN(CCc2cccc(OC)c2)C1 (stereo not shown)	-43.6
CCC(CC)c1nnc(NC(=O)c2nn(C)c(=O)c3ccccc23)s1	5.58
O=c1[nH]c2ccccc2nc1/C=C/c1ccc(F)cc1	6.4
CCOC(=O)c1cccc(NC(=O)CCNS(=O)(=O)c2cccc3nonc23)c1	-12.9
COC(=O)CSc1nnc(NC(=O)c2ccc3c(c2)OCO3)s1	-14.7
COc1ccccc1-c1cn[nH]c1-c1ccc(O)cc1O	11.2
O=C(COc1ccc(C(=O)c2ccccc2)cc1)Nc1ncccc1O	8.32

SMILES	hERG current change (%, negative = inhibition) at 10uM [%]
COc1ccccc1NCC(=O)Nc1cc(S(=O)(=O)N2CCOCC2)ccc1N1CCOCC1	-18.3
O=C(CN(c1ccccc1)S(=O)(=O)c1ccc(Cl)cc1)Nc1cccnc1	-34.2
COC(=O)Nc1ccc2ncn(C)c(=O)c2c1	10.5
COc1ccc([N+](=O)[O-])cc1NC(=O)Cn1ccc(C(F)(F)F)n1	13.3
CCC1Oc2ccc(C)cc2N(CC(=O)NCCCN2CCN(Cc3ccccc3)CC2)C1=O (stereo not shown)	-53.9
NS(=O)(=O)c1ccc(NC(=S)NC(=O)c2ccc(-c3ccccc3)cc2)cc1	1.17
Cc1cc(S(=O)(=O)NCC2CCCO2)c(C)cc1Br (stereo not shown)	9.84
COc1ccc(NC(=O)CN2CCN(c3ccc(Cl)cc3)CC2)c(OC)c1	-12.7
Cn1cc(C(=O)C(=O)N2CCCc3ccccc32)c2ccccc21	8.92
Cc1nc(N2CCN(Cc3ccc(Cl)cc3)CC2)c2oc3ccccc3c2n1	-19.3
O=C1CC(N2CCC(c3nc4ccccc4s3)CC2)C(=O)N1 (stereo not shown)	-27.3
CC(C(=O)O)C(=O)O	30.5
CN(C)c1ccc(-n2cccc2/C=C/[N+](=O)[O-])cc1	20.2
CC(=O)Nc1ccc(S(=O)(=O)NCCNC(=O)c2ccccc2F)cc1	1.99
CCOc1ccc(NC(=O)CCN2C(=O)c3ccccc3C2=O)cc1	-7.96
COc1ccc(S(=O)(=O)n2c(CCN3CCOCC3)nc3ccccc32)cc1	-59.2
Cc1ccc(C2C(C#N)=C(N)Oc3n[nH]c(-c4cccnc4)c32)o1 (stereo not shown)	22.2
CCCCNC(c1ccccc1)c1ccncc1 (stereo not shown)	5.77
COc1cc(CNC(=O)CCn2nc(C)c3c(C)n(-c4ccccc4)nc3c2=O)cc(OC)c1OC	12
Cc1onc(-c2ccccc2)c1C(=O)NC(=S)NNC(=O)c1ccc(O)cc1	14.4
CCCCC(O)(c1ccccc1)C(CN1CCOCC1)c1ccccc1.Cl (stereo not shown)	-15.3
Cc1ccc(C(=O)NCC(=O)OCC(=O)NC2CCCC(C)C2C)s1 (stereo not shown)	-2.32
Cl.Nc1cccc(CCc2nc3ccccc3[nH]2)c1	-16.2

SMILES	hERG current change (%, negative = inhibition) at 10uM [%]
Cc1c(C(=O)O)cccc1-c1ccc(C=O)o1	11.3
CC(C)c1ccc(NC(=O)CSc2nc3ccsc3c(=O)n2Cc2ccc(C(=O)O)cc2)cc1	3.05
O=C(Cn1cncn1)c1ccc(Cl)cc1	0.632
CCOc1ccc(NC(=O)c2ccc(NC(=S)NC3CCCCC3)cc2)cc1	20.9
O=C(C1CCN(C2CC(=O)N(c3ccc(F)cc3)C2=O)CC1)N1CCOCC1 (stereo not shown)	3.4
CC(C)c1ccc(NC2CCCN(C(=O)CCN3CCCC3=O)C2)cc1 (stereo not shown)	9.8
Cc1[nH]oc(=O)c1N=Nc1ccc2[nH]c(=O)[nH]c2c1	7.93
CCCc1nc2c([nH]1)C(c1cccnc1)C(C#N)=C(N)O2 (stereo not shown)	0.373
Cc1cccc(-c2nc3c(c(=O)c4ccccc4n3C)c(=O)n2-c2ccccc2)c1	14
CCCNC(=O)Cn1cnc([N+](=O)[O-])n1	21.8
COc1ccc2nc(C)c(C(=O)NN)cc2c1	28.8
Cc1ccc(C)c(N2CCN(c3ccc(N4C(=O)COCC4=O)cc3[N+](=O)[O-])CC2)c1	12.4
CN(CC(=O)Nc1ccccc1Cl)C(=O)CSc1nncs1	-3.38
CCCn1c(SCC(=O)c2ccc3c(c2)NC(=O)CO3)nc2ccccc21	8.76
Cc1nc(C(Cl)(Cl)Cl)nc2[nH]ccc(=O)c12	8.4
CCCCC(=O)N/N=C/c1c(O)n(CC)c(=S)n(CC)c1=O	10.5
CC1(C)NC(=O)N(Cc2cc(=O)n3ccsc3n2)C1=O	10.8
Cc1cc(NC(=O)CSc2ccc(-c3ccccc3)nn2)no1	-7.53
CCCCN1CN(S(=O)(=O)c2ccc(OC)cc2)c2nc3ccccc3nc21	-14.5
Cc1nn2c(-c3ccccc3)ccnc2c1Br	2.5
Cc1ccc(NC(=S)N2CCC(c3nc4ccccc4s3)CC2)cc1	0.427
O=C(CN1CCSC1=O)N1CCN(S(=O)(=O)c2ccc(Cl)cc2)CC1	-11.9

— paper PMC4336329 (PLoS ONE, 2015)
